# Hit rate of the full screen: of about 390,000 compounds, about 930 (0.24%) were called active. Inconclusive means that the source gave no clear call. Such entries were picked first, then a sample of the others. Calls follow the shape of the dose curve; as a rule, active = well fitted activation curve with a large enough effect; inconclusive = small, poorly fitted or top-dose-only effect; inactive = no such curve, though single readings can be large or run the other way. Potencies of inconclusive entries are doubtful fits and often do not repeat. Bridge positions count the residues as written; N and C are the ends. Square brackets hold non-standard residues; d marks the D form. Peptide text beside a SMILES is read from it. * marks the point of attachment. X1 = CCC(C)C(N)C1=NC(C(=O)*)CS1; dOrn = NCCC[C@@H](N)C(=O)O
# Experiment: qHTS for Suppressors of FUS Proteinopathy: Primary screen using FUS-linked yeast assay; also: nearly all actives have a fitted effect of over 55% in size;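 as to growth rescue (activation): plate controls were DMSO vehicle for no effect and reference control for full effect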
# Conditions: S. cerevisiae FUS-expressing, OD600, 24 h; Potency: growth rescue; growth rescue (activation): at 76.6 µM (top of the series)
# In short: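 Steps: raffinose overnight preculture; dilution to OD 0.005 in 2% galactose minimal medium; compound addition (concentration series); 24hr at 30C, 99% humidity; absorbance read at 600 nm.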
# Potency is read from the fitted curve at half-maximal effect; tags tell the direction and shape of the fitted curve.
Structure (SMILES),Potency,growth rescue (activation)
O=C(N[C@@H](Cc1ccccc1)C(=O)OCc1ccccc1)c1nc[nH]c1C(=O)N1CCN(c2ccccc2)CC1,"inconclusive: 15.8 µM [activator, partial curve, poor fit]",–
CC(=O)N1CCOc2cc(S(=O)(=O)NCc3ccccc3Cl)c(C)cc21,–,inactive: -6.98%
Cc1ccc(CNC(=O)C2(C)CCN2C(=O)Cc2ccc(C(C)(C)C)cc2)cc1 (configuration not stated),"inconclusive: 25.1 µM [activator, single point]",–
COc1cccc(CNCCSc2nnnn2C)c1OC,"inconclusive: 11.2 µM [activator, single point]",–
Cc1cccc(C2CC3(CC(C)(C)NC(=S)N3)Oc3cc(O)ccc32)c1 (configuration not stated),"inconclusive: 17.8 µM [activator, partial curve, poor fit]",–
COC(=O)[C@]12C[C@H](CC(=O)N3CCC(c4ccccc4)CC3)C(=O)N(Cc3ccccc3)C1=C[C@H](COCc1ccccc1)O[C@@H]2C,active: 12.6 µM,–
CCOc1cccc(NC(=O)C2CC(=O)N(C)C(=Nc3cccc(OC)c3)S2)c1 (configuration not stated),"inconclusive: 35.5 µM [activator, single point]",–
COC(=O)[C@]12C[C@H](CC(=O)N3CCCC3)C(=O)N(CCc3ccc(OC)c(OC)c3)C1=C[C@H](C(C)(C)C)O[C@@H]2C,–,inactive: 29.9%
COC(=O)c1ccc(COC(=O)c2ccc(S(=O)(=O)N3CCC(C)CC3)cc2)o1,"inconclusive: 5.62 µM [activator, partial curve, poor fit]",–
O=C(NC[C@H]1CCCO1)c1cccc2c1C(=O)c1ccc(-c3ccc(F)cc3OCc3ccccc3)cc1S2(=O)=O,active: 22.4 µM,–
Cc1ccc(S(=O)(=O)N2[C@@H](c3ccc(Cl)cc3)C(C(=O)O)=CC[C@H]2c2ccc(C(C)C)cc2)cc1,"inconclusive: 10 µM [activator, partial curve]",–
COCOc1ccc(-c2ncc(OCCN3CCCC3=O)nc2NC(=O)c2cc3ccccc3s2)cc1,"inconclusive: 28.2 µM [activator, single point]",–
CSc1nc(N)n2nc(C(C)(C)C)cc2n1,–,inactive: -16.4%
Cc1cc2[nH]c(=O)c(=O)[nH]c2cc1S(=O)(=O)NCc1ccc(F)cc1,–,inactive: -14.2%
Cc1ccc(OCCC(=O)OC(C)C(=O)Nc2ccc(Cl)cn2)cc1 (configuration not stated),"inconclusive: 50.1 µM [activator, single point]",–
CCOC(=O)C1CCCN(C(=O)c2sc(-c3ccccc3)nc2C)CC1 (configuration not stated),–,inactive: -4.99%
COc1ccc(C(=O)O/N=C(\N)c2ccccc2)c(OC)c1,–,inactive: -10.8%
COc1ccccc1NS(=O)(=O)c1cccc(NC(=O)CCNC(=O)c2ccccc2OC)c1,"inconclusive: 17.8 µM [activator, partial curve]",–
Cc1cc(C)n2c(NCc3ccccc3)c(-c3cc4ccccc4o3)nc2n1,"inconclusive: 25.1 µM [activator, partial curve, poor fit]",–

Structure (SMILES),Potency,growth rescue (activation)
CCCN(CC(=O)Nc1ccccc1OC)C(=O)CCC(=O)c1ccc(OCC)cc1,"inconclusive: 22.4 µM [activator, partial curve, poor fit]",–
Cc1cccc(CSc2ccc3nnc(CCNS(=O)(=O)c4ccccc4)n3n2)c1,"inconclusive: 28.2 µM [activator, partial curve, poor fit]",–
COc1ccc(CCNC(=O)c2ccc(CSCc3ccc(C)cc3)o2)cc1OC,"inconclusive: 31.6 µM [activator, single point]",–
CC1=C(C(=O)Nc2ccccc2)C(c2ccco2)C(C#N)=C(SCC(=O)OC(C)C)N1 (configuration not stated),"inconclusive: 50.1 µM [activator, single point]",–
COc1ccc(-c2cc([C@H]3[C@@H]4C=CCC[C@@]4(C)C(=O)N3Cc3ccccc3)ccc2F)cc1,"inconclusive: 31.6 µM [activator, single point]",–
O=c1[nH]c2ccc(Cl)cc2c(-c2ccccc2)c1SC(=S)N1CCCCC1,"inconclusive: 31.6 µM [activator, single point]",–
CCC(C)C(N)C1=NC(C(=O)N[C@@H](CC(C)C)C(=O)N[C@H](CCC(=O)[O-])C(=O)N[C@H](C(=O)N[C@H]2CCCCNC(=O)[C@H](CC(N)=O)NC(=O)[C@@H](CC(=O)[O-])NC(=O)[C@H](Cc3cnc[nH]3)NC(=O)[C@@H](Cc3ccccc3)NC(=O)[C@H]([C@@H](C)CC)NC(=O)[C@@H](CCCN)NC2=O)[C@@H](C)CC)CS1.[Zn+2] (some centres not stated) (X1-L[dE]IK[dOrn]I[dF]H[dD]N; lactam 4-C),"inconclusive: 31.6 µM [activator, partial curve, poor fit]",–
C#CCOCCOCCOCCNc1nc(N2CCOCC2)nc(N2CCN(C(=O)CCCCCCCCCCNC(=O)[C@H]([C@@H](C)CC)n3cc(CCCCN=C(N)N)nn3)CC2)n1,"inconclusive: 8.91 µM [activator, partial curve]",–
COc1ccc2nc3cc(Cl)ccc3c(Nc3cc(C(C)C)c(O)cc3C)c2c1,"inconclusive: 17.8 µM [activator, partial curve, poor fit]",–
COCCN1CCn2c(nc3cc(NC(=O)NC4CCCCC4)ccc32)C1,"inconclusive: 12.6 µM [activator, partial curve]",–
COc1cccc(Cn2c(=O)n(CC3CCC(C(=O)N4CCOCC4)CC3)c(=O)c3sccc32)c1 (configuration not stated),"inconclusive: 28.2 µM [activator, partial curve, poor fit]",–
COC(=O)[C@]12CCCCC=C1N(Cc1ccc(Cl)cc1Cl)C(=O)[C@H](CC(=O)N1CCC(c3ccccc3)CC1)C2,"inconclusive: 35.5 µM [activator, single point]",–
C=CC[C@@H](CC(=O)N[C@@H](CO)Cc1ccccc1)C(=O)N[C@H](COC(=O)[C@@H](CC=C)CC(=O)OC(C)(C)C)Cc1c[nH]c2ccccc12,"inconclusive: 11.2 µM [activator, partial curve, poor fit]",–
CCN(C[C@H]1N[C@@](CC)(C(=O)OC)[C@H]2C(=O)N(Cc3ccccc3)C(=O)[C@@H]12)S(=O)(=O)c1ccc(C(C)(C)C)cc1,"inconclusive: 17.8 µM [activator, single point]",–
C=CCn1c(N)c(C(=O)Nc2ccccc2)c2nc3ccccc3nc21,"inconclusive: 50.1 µM [activator, single point]",–
CC(C)(C)c1ccc(C(=O)N2CCC(=O)N(C(COCc3ccccc3)Cc3ccccc3)CC2)cc1 (configuration not stated),"inconclusive: 25.1 µM [activator, single point]",–
Cc1cc(C)c(NC(=O)CSc2cn(CC(=O)N3CCOCC3)c3ccccc23)c(C)c1,–,inactive: 24.7%
O=C(C1CC(=O)N(c2ccc(Cl)cc2)C1)N1CCC(c2nc3ccccc3[nH]2)CC1 (configuration not stated),"inconclusive: 11.2 µM [activator, partial curve, poor fit]",–
OC(c1ccccc1)(c1ccccc1)C1CCN(CCCOc2ccc(OC(F)(F)F)cc2)CC1,–,inactive: 26.2%

Structure (SMILES),Potency,growth rescue (activation)
CC(=O)c1ccc(NC(=S)NCCc2cccc(Cl)c2)cc1,"inconclusive: 2.24 µM [activator, full curve]",–
Cc1ccc(-n2ncc(C(=O)NCCCN3CCN(C)CC3)c2C2CCN(C(=O)OC(C)(C)C)CC2)cc1,–,inactive: 24.5%
CCc1nc2ccc(C(=O)NCCOc3ccc(OC)cc3)cn2c1N(CC)Cc1cccc(Br)c1,"inconclusive: 22.4 µM [activator, partial curve]",–
CC(=O)c1ccc(N2CCN(c3ncnc4onc(-c5ccc(Cl)cc5)c34)CC2)cc1,"inconclusive: 7.94 µM [activator, partial curve, poor fit]",–
Cc1ccc(C)n1-c1ccc(C(=O)NCC2CCCO2)cc1 (configuration not stated),"inconclusive: 12.6 µM [activator, partial curve, poor fit]",–
CCOc1cc(-c2ccc(OC(=O)c3ccc(Cl)cc3)c(OC)c2)cc(=O)c2c(C)oc(C)c12,"inconclusive: 39.8 µM [activator, single point]",–
Cc1c(C(=O)NCc2ccc(F)cc2)sc2nc(-c3ccccc3)cn12,–,inactive: 7.43%
C#Cc1cccc(NC(=O)c2ccc3c(c2)C(=O)N(Cc2cccnc2)C3=O)c1,–,inactive: 6.88%
COc1ccc(/C=C2\Oc3ccccc3C2=O)cc1,–,inactive: 11.1%
COC(=O)c1cc2occc2n1CC(=O)Nc1ccc(C)cc1C,–,inactive: 35%
Cc1ccc(-n2ncc3c(NCCCn4ccnc4)ncnc32)cc1,–,inactive: -20.8%
CCN(C[C@H]1N[C@@](Cc2ccccc2)(C(=O)OC)[C@H]2C(=O)N(Cc3ccccc3)C(=O)[C@@H]12)C(=O)Nc1ccc(F)cc1,"inconclusive: 31.6 µM [activator, partial curve]",–
O=C1CC(N2CCN(Cc3ccccc3)CC2)C(=O)N1 (configuration not stated),–,inactive: -35.7%
Cc1cc(C)n2nc(SCn3nnc4ccccc4c3=O)nc2n1,"inconclusive: 11.2 µM [activator, single point]",–
COCCN(C(=O)Cc1cccs1)C(C(=O)NCc1ccc(OC)cc1)c1ccc(C)cc1 (configuration not stated),–,inactive: 20.8%
COc1ccc(CCNC(=O)CSc2nnc(CNc3ccc(Cl)cc3)o2)cc1OC,–,inactive: 31.3%
O=C1[C@H]2[C@@H](c3ccc(Cl)cc3)N3C(=O)N(c4cccc(Cl)c4)C(=O)[C@@]3(Cc3ccc(Cl)cc3)[C@H]2C(=O)N1C1CCCCC1,"inconclusive: 10 µM [activator, partial curve, poor fit]",–
O=c1c2ccccc2nnn1Cc1ccccc1,–,inactive: -20%
COCCCNC(=O)C[C@H]1C[C@@]2(C(=O)OC)C(=C[C@H](C(C)C)O[C@@H]2C2CC2)N(Cc2cccc3ccccc23)C1=O,"inconclusive: 12.6 µM [activator, partial curve]",–

# — PubChem BioAssay AID1347120 (National Center for Advancing Translational Sciences (NCATS), 2019)
